Experimental data from PubChem BioAssay AID1963576 (National Center for Advancing Translational Sciences (NCATS), 2024).
Out of some 46,000 compounds screened, about 60 (0.1%) were called active. Roughly 3% stayed inconclusive and do not appear here. Calls follow the shape of the dose curve; as a rule, active = well fitted inhibition curve with a large enough effect; inconclusive = small, poorly fitted or top-dose-only effect; inactive = no such curve, though single readings can be large or run the other way. The list shows a part of the results.

test: Primary qHTS assay for Inhibitors of ovarian cancer metastasis using an organotypic tumor microenvironment (TME) model.; also: nearly all actives have a fitted effect of over 65% in size;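 as to activity change, negative = inhibition: plate controls were DMSO wells for no effect and tomatine positive control wells for full effect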; details: SKOV3ip1-GFP adhesion/invasion on 3D omental model, fluorescence; series mostly up to 45.8 µM; activity change, negative = inhibition: at the top concentration
Summary of the method: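 Primary human omental fibroblast/mesothelial 3D culture pre-formed 48 h. SKOV3ip1-GFP cells added with compounds (0.36-46 umol/L), incubated 2 h RT/16 h 37 C, fixed; GFP cells quantified at 488/509 nm.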

Activity change, negative = inhibition, inactive:
Cc1ccc(CN(C(=O)COc2ccc(Cl)c(C)c2)c2ccccn2)o1 1.27%, Cc1ccc(C(=O)/C=C/c2cn(CC(O)CN3CCc4ccccc43)c3ccccc23)cc1 (stereo not drawn) -10.9%, COc1ccc(OC)c(CNC(=O)c2cc3cc4ccc(OC)cc4nc3o2)c1 14.2%, COc1ccc(-c2noc(COc3cc(C)c(Br)c(C)c3)n2)cc1OC 1.27%, Cc1cc(NC(=O)c2ccccc2Cl)ccc1NC(=O)c1ccccc1 -22.5%, Cc1cc(S(=O)(=O)C(CNC(=O)COc2ccccc2)c2cccs2)ccc1F (stereo not drawn) 5.17%, CCOc1cc2sc(N3CCC(C(=O)Nc4ccccc4Cl)CC3)nc2cc1Br 2.92%, COc1ccccc1Cn1cc(C(=O)c2ccc(Cl)cc2)c(=O)c2cc3c(cc21)OCCO3 0.241%, COc1ccc(OCCSc2nc(C)c(Cc3ccccc3)c(=O)[nH]2)cc1 11.2%, COc1ccc(NC(=O)CCN2CCN(CCO)CC2)c(OC)c1 1.06%, CS(=O)(=O)Oc1ccc2c(NC(N)=O)c(C(=O)c3ccc(Cl)cc3Cl)oc2c1 1.19%, CCOc1cc(C(=O)Nc2nnc3n2CCS3)cc(OCC)c1OCC 19%, CCOc1ccc(C(=O)CSc2nnc3cc(C)c4ccccc4n23)cc1 -11.5%, Cc1ccccc1C(=O)Nc1nnc(SCc2cc(=O)n3ccccc3n2)s1 -1.33%, COc1ccc(-c2noc(N3CCN(c4cccc(Cl)c4)CC3)n2)cc1OC 1.56%, CC(C(=O)Nc1ccc(F)c(Cl)c1)N1Cc2ccccc2C1=O (stereo not drawn) -5.19%, CCSc1oc(-c2ccc(F)cc2)nc1S(=O)(=O)c1ccc(C)cc1 -5.4%, CN1CCN(C(=O)c2ccc3c(c2)N(Cc2c(F)cccc2Cl)C(=O)c2ccccc2S3)CC1 -2.12%, Cc1ccc(N(CC(=O)NCC(C)c2ccccc2)S(=O)(=O)N(C)C)cc1 (stereo not drawn) 0.498%, CC(C)(C)c1ccc(C(=O)NCC(c2cccs2)S(=O)(=O)c2ccc(F)cc2)cc1 (stereo not drawn) 1.57%, CC(=O)c1cccc(S(=O)(=O)N2CCN(c3ccccc3F)CC2)c1 -1.91%, CCCCC(CC)CNC(=O)c1ccc2c(=O)n(CCOC)c(=O)[nH]c2c1 (stereo not drawn) -1.42%, Cc1cccc(C(=O)Nc2ccc(-c3nc4cc(C(C)C)ccc4o3)cc2)c1 -22.3%, Cc1ccc(N2CCN(C(=O)NCc3noc4ccccc34)CC2C)cc1 (stereo not drawn) -7.33%, COc1ccccc1N1CCN(C(=O)c2cnn(-c3ccc(C)c(C)c3)c2C2CCN(C(=O)OC(C)(C)C)CC2)CC1 -5.43%, CCOC(=O)c1ccc(NC(=O)C2CCN(C(=O)N3CC(C)Oc4ccc(C)cc43)CC2)cc1 (stereo not drawn) -2.98%, COc1ccc(Cl)cc1S(=O)(=O)N1CCN(Cc2cccc(F)c2)CC1 -14.8%, CCCOc1ccc(C(=O)N(Cc2cccs2)c2ccc(C)cc2)cc1 18%, COc1ccc(-c2c3c(nc4sc(C(=O)Nc5ccc(F)cc5)c(N)c24)CC(C)(C)CC3=O)cc1 -0.65%, CCOC(=O)c1c(C)oc2ncnc(NCCCN3CCN(c4cc(C)ccc4C)CC3)c12 -9.9%, O=C(NCc1ccco1)C1CCN(C(=O)N2CCOc3ccc(Cl)cc32)CC1 -24.3%, Cc1cc2nc(-c3ccc(Cl)cc3)cc(C(F)(F)F)n2n1 -10.6%, Cc1ccc(C)c(Cn2c(=O)n(Cc3ccc(C(=O)NC4CCN(Cc5ccccc5)CC4)cc3)c(=O)c3ccccc32)c1 4.59%, O=c1cc2nc(-c3cccs3)nc(SCCOc3ccc(Cl)cc3)n2[nH]1 7.78%, O=C1CC(c2nnc(Cc3ccc(Cl)cc3)o2)CN1c1ccccc1 (stereo not drawn) 0.692%, COc1ccccc1-c1nnc2n(CCc3ccccc3)c(=O)c3ccccc3n12 13.9%, Cc1cc2c(cc1S(=O)(=O)CCC(=O)NC1CCC(C)CC1)OCC(=O)N2 (stereo not drawn) 23.1%, CC(=O)N1c2ccccc2CC1C(=O)N1CCN(c2cccc(Cl)c2)CC1 (stereo not drawn) 7.57%, COc1cccc(-n2cc(C(=O)Oc3cccc(C(F)(F)F)c3)c3ccccc3c2=O)c1 -5.3%, CCN(c1ncnc2c1cnn2-c1cc(Cl)ccc1C)C1CCCCC1 5.1%, Nc1c(-c2nc(-c3cccs3)no2)nnn1-c1cccc(F)c1 -1.95%, CCOC(=O)c1cnc2c(C)cccc2c1NCCc1ccc(OC)c(OC)c1 -0.984%, Cc1ccc(C)c(CN2C(=O)c3ccccc3S(=O)(=O)c3ccc(C(=O)N4CCCC4)cc32)c1 -3.27%, COc1cccc(CNC(=O)CN2C(=O)CCCc3ccccc32)c1OC 0.545%, CNC(=O)C1CCN(Cc2cc3ccccc3n2Cc2ccccc2C)CC1 -3.26%, CC(=O)NCCNc1nc2c(-c3ccc(C)cc3)nnn2c2ccccc12 -20.9%, CCOCCCNC(=O)CCC(=O)NNc1nc2ccccc2c2nc(-c3ccccc3)nn12 -0.641%, Cc1oc(-c2ccccc2)nc1CSc1nnc(C)n2c1cc1sccc12 -6.67%, O=C(NCc1cccc(Br)c1)C1CCN(C(=O)c2sccc2-n2cccc2)CC1 11.5%

outcome, inactive:
Cc1ccc(-c2nn(CC(=O)NC3CCCC3)c3c2cnc2ccc(F)cc23)cc1C, COc1ccc(Oc2nc3c(c(=O)n(C)c(=O)n3C)n2Cc2ccccc2Cl)cc1, O=C(Nc1ccc2nc(SCc3ccccc3)sc2c1)c1cccc(F)c1, Cc1cc(OCC(=O)Nc2cc(-c3nc4ccccc4[nH]3)ccc2C)ccc1Cl, COc1cc(Cl)c(C)cc1Nc1nc2ccccc2nc1NS(=O)(=O)c1ccccc1, COc1ccc(S(=O)(=O)n2nc(C)c(S(=O)(=O)N3CCCCCC3)c2C)cc1OC, CN(C)S(=O)(=O)c1ccc2c(c1)N(CC(=O)NCc1cccc(Br)c1)C(=O)CS2, Cc1ccccc1-c1nc(C(N)=O)c2c(n1)n(-c1ccc3c(c1)OCO3)c(=O)n2C, O=S(=O)(NCCc1csc2nc(-c3ccc(Cl)cc3)nn12)c1ccc(Oc2ccccc2)cc1, CCn1c(=N)c(C(=O)NC2CCCCC2)cc2c(=O)n3cccc(C)c3nc21, Cc1ccc(O)c(NC(=O)c2noc3c2CCCCC3)c1, CCc1ccc(NC(=O)c2ccc3oc(=O)n(Cc4ccccc4)c3c2)cc1, CCOc1ccc(OCC)c(NC(=O)C(NS(=O)(=O)c2ccc(Br)s2)c2ccccc2)c1 (stereo not drawn), CCOC(=O)CSc1nc2c(sc3ccccc32)c(=O)n1Cc1ccc(C)cc1
